# According to the antibiotic and cytotoxicity screens of Wong et al. (2023):
# The other results are listed elsewhere or left out.
# What was measured:
# HSkMC = human skeletal muscle cells; experiment: cytotoxicity call (relative viability < 0.9); details: 10 µM
# HepG2 = experiment: cytotoxicity call (relative viability < 0.9); details: 10 µM
# S. aureus RN4220 = experiment: growth inhibition call (relative growth <= 0.2); details: 50 µM
SMILES,cytotoxicity call (HSkMC),cytotoxicity call (HepG2),growth inhibition call (S. aureus RN4220)
COc1c2ccoc2cc2oc(=O)ccc12,inactive,inactive,inactive
COc1ccc(S(=O)(=O)Nc2ccc3c(c2)C(=O)N([C@@H](C)CO)C[C@@H](C)[C@H](CN(C)Cc2ccc4c(c2)OCO4)OCCCC[C@@H](C)O3)cc1,inactive,inactive,inactive
COc1ccc(S(=O)(=O)Nc2ccc3c(c2)C(=O)N([C@H](C)CO)C[C@@H](C)[C@@H](CN(C)S(C)(=O)=O)OCCCC[C@H](C)O3)cc1,inactive,inactive,inactive
CC(=O)N(C)C[C@H]1Oc2ncc(C#C[C@@H](C)O)cc2C(=O)N([C@@H](C)CO)C[C@@H]1C,inactive,inactive,inactive
Cc1ccccc1S(=O)(=O)N1[C@@H]2Cn3c(cccc3=O)[C@H]1[C@@H](C(=O)N1CCOCC1)[C@@H]2CO,inactive,inactive,inactive
O=C(COc1ccccc1)Nc1nnc[nH]1,inactive,inactive,inactive
CO[C@@H](CN(C)S(=O)(=O)c1cn(C)cn1)[C@H](C)CN(C(=O)Nc1ccc(C(F)(F)F)cc1)[C@@H](C)CO,inactive,inactive,active
CCS(=O)(=O)NCc1nccc(N(C)C)n1,inactive,inactive,inactive
Cn1cnc(S(=O)(=O)N[C@@H]2CC[C@@H](CC(=O)N3CCN(c4ccccc4)CC3)O[C@@H]2CO)c1,inactive,inactive,inactive
O=[Si](O)O,inactive,inactive,inactive
COc1ccc(S(=O)(=O)N(C)C[C@@H]2Oc3c(NS(=O)(=O)c4c(C)noc4C)cccc3C(=O)N([C@@H](C)CO)C[C@@H]2C)cc1,inactive,inactive,inactive
COc1ccc(cc1)S(=O)(=O)N1C[C@]2(CN(Cc3ccncc3)[C@H](CO)c3[nH]c4cc(ccc4c32)OC)C1,inactive,inactive,inactive
O=C(C[C@H]1C[C@@H]2c3cc(NS(=O)(=O)c4ccc(F)cc4)ccc3O[C@@H]2[C@@H](CO)O1)NCCc1ccccc1,inactive,inactive,inactive
COc1ccc(S(=O)(=O)N(C)C[C@@H]2Oc3cc(C#CC4CC4)ccc3S(=O)(=O)N([C@@H](C)CO)C[C@@H]2C)cc1,inactive,inactive,inactive
CC1(C)CC(=O)C(=CNC(CO)(CO)CO)C(=O)C1,inactive,inactive,inactive
Cc1noc(C)c1NC(=O)N(C)C[C@@H]1Oc2c(NS(C)(=O)=O)cccc2C(=O)N([C@@H](C)CO)C[C@@H]1C,inactive,inactive,inactive
COc1ccc(S(=O)(=O)Nc2ccc3c(c2)C(=O)N([C@H](C)CO)C[C@H](C)[C@@H](CN(C)S(=O)(=O)c2cccs2)O3)cc1,inactive,inactive,inactive
NCCNc1cccc2ccccc12,inactive,inactive,inactive
CSC1=NCN(CCCO)CN1,inactive,inactive,inactive
C[C@H]1CN([C@@H](C)CO)C(=O)c2cccc(NC(=O)c3nc4ccccc4s3)c2O[C@@H]1CN(C)C(=O)Nc1cccc2ccccc12,inactive,inactive,inactive
C[C@H](CO)N1C[C@H](C)[C@@H](CN(C)Cc2ccc(Oc3ccccc3)cc2)Oc2c(NC(=O)Nc3ccccc3)cccc2C1=O,active,inactive,inactive
C[C@@H]1CN([C@@H](C)CO)C(=O)CCCn2nncc2CO[C@@H]1CN(C)S(=O)(=O)c1ccc(Oc2ccccc2)cc1,inactive,inactive,inactive
C[C@@H]1CN([C@H](C)CO)C(=O)c2cc(NC(=O)c3ccncc3)ccc2O[C@@H]1CN(C)C(=O)Nc1ccc2c(c1)OCO2,inactive,inactive,inactive
CCc1nnc(N)[nH]1,inactive,inactive,inactive
C[C@@H]1CCCCO[C@H](CN(C)Cc2ccncc2)[C@@H](C)CN([C@H](C)CO)C(=O)c2cc(NC(=O)Nc3ccc(C(F)(F)F)cc3)ccc2O1,inactive,inactive,inactive
C[C@H]1CCCCO[C@H](CN(C)C(=O)Nc2ccccc2)[C@@H](C)CN([C@@H](C)CO)C(=O)c2cc(NC(=O)Cc3ccccc3)ccc2O1,inactive,inactive,inactive
C[C@H]1CN([C@@H](C)CO)C(=O)CCCn2cc(nn2)CO[C@@H]1CN(C)S(=O)(=O)c1ccc(-c2ccccc2)cc1,inactive,inactive,inactive
Cc1ccc(N2C[C@@H](N)CC2=O)cc1C,inactive,inactive,inactive
CCN1CCC[C@@H]1CN1CNC(=S)NC1,inactive,active,inactive
